Test results from PubChem BioAssay AID624296 (National Center for Advancing Translational Sciences (NCATS), 2012).
About 9,900 (2.8%) of roughly 350,000 compounds were called active. Inconclusive results, whose numbers are uncertain, are shown with a selection of clear calls. Calls follow the shape of the dose curve; as a rule, active = well fitted activation curve with a large enough effect; inconclusive = small, poorly fitted or top-dose-only effect; inactive = no such curve, though single readings can be large or run the other way. Potencies of inconclusive entries are left out as doubtful fits.

assay: A quantitative high throughput screen for small molecules that induce DNA re-replication in MCF 10a normal breast cells.; also: nearly all actives have a fitted effect of over 50% in size; as to activity, positive = re-replication: % of control where 0% means no effect; details: MCF 10A DNA re-replication, Hoechst nuclear intensity, 48 h; activity, positive = re-replication: at 46.1 µM (top of the series)
Potency is read from the fitted curve at half-maximal effect; tags tell the direction and shape of the fitted curve.

| SMILES | Potency | activity, positive = re-replication |
| --- | --- | --- |
| COc1ccccc1OP(=O)(Nc1cccnc1)Oc1ccccc1OC | inconclusive [activator, partial curve] |  |
| Cc1ccc(NC(=O)COc2ccc(-n3ccnc3)cc2)cc1Cl | inconclusive [activator, partial curve, poor fit] |  |
| CC[C@@H](C(=O)[C@@H](C)[C@@H](O)[C@H](C)[C@@H]1O[C@@H]([C@@H](CC)C(=O)O)CC[C@@H]1C)[C@H]1O[C@]2(C=C[C@@H](O)[C@]3(CC[C@@](C)([C@H]4CC[C@](O)(CC)[C@H](C)O4)O3)O2)[C@H](C)C[C@@H]1C | inconclusive [activator, partial curve] |  |
| O=C(Nc1ccc(Br)cc1)c1nn(C23CC4CC(CC(C4)C2)C3)cc1Br | inactive |  |
| CC(C)(C)NC(=O)NC(=O)CN1CC=C(c2ccccc2)CC1 | inconclusive [activator, single point] |  |
| COc1ccc(NC2Oc3cc4c(cc3C(c3cc(OC)c(OC)c(OC)c3)C2C)OCO4)cc1 (stereo unspecified) | active: 0.58 µM |  |
| O=c1[nH]sc2cc(F)ccc12 | inconclusive [activator, single point] |  |
| Cc1c(NC(=O)C(C)OC(=O)Cc2ccccc2)c(=O)n(-c2ccccc2)n1C (stereo unspecified) | inconclusive [activator, single point] |  |
| COc1ccc(N2C(=O)/C(=C/C=C/c3ccccc3[N+](=O)[O-])C(=O)NC2=S)cc1 | inconclusive [activator, single point] |  |
| COCCCn1c(N)c(C(=O)NCCC(C)C)c2nc3ccccc3nc21 | inconclusive [activator, full curve, poor fit] |  |
| CCCSc1nc(O)c(CC)c(=O)n1C(C)CC (stereo unspecified) | inactive |  |
| CN(C)c1ccc(NC(=O)CN2C(=O)CN=C(c3ccccc3)c3ccccc32)cc1 | inconclusive [activator, single point] |  |
| Cc1nc2cc(F)ccc2n1C1CCN(Cc2nnnn2CCc2ccccc2)CC1 | inactive |  |
| COC(=O)C1=C(c2ccc(S(C)(=O)=O)cc2)C[C@@H]2CC[C@H]1N2C(=O)N1CCC(O)CC1 | inactive |  |
| O=C1NC(=O)N(c2ccc3c(c2)OCO3)C(=O)/C1=C\c1ccc(N2CCCCC2)o1 | inactive |  |
| CCCCn1c(O)c(C(C)=NCC2CCCO2)c(=O)[nH]c1=O (stereo unspecified) |  | inactive: -182% [at 0.0737 µM] |
| N#CC(C#N)=Cc1ccc(O)c(O)c1 | inconclusive [activator, full curve, poor fit] |  |
| c1ccc(CNC2=NCCS2)cc1 | inactive |  |
| Cc1cc(C)cc(N2C(=O)NC(=O)/C(=C/c3cccn3-c3ccc(Cl)cc3)C2=O)c1 | active: 16.4 µM |  |
| Cc1ccc(/C=C/C(=O)C2C(=O)c3ccccc3C2=O)cc1 | inconclusive [activator, full curve, poor fit] |  |
| COc1ccc(CN2CCN(C(=O)COc3ccc4ccccc4c3)CC2)c(OC)c1 | inconclusive [activator, partial curve] |  |

| SMILES | Potency | activity, positive = re-replication |
| --- | --- | --- |
| CC(=O)OC(C)(C)/C=C/C(=O)[C@](C)(O)C1[C@H](O)C[C@@]2(C)C3CC=C4C(C[C@H](O)C(=O)C4(C)C)[C@]3(C)C(=O)C[C@]12C (stereo partly specified) | inconclusive [activator, partial curve, poor fit] |  |
| CN(C)CCSC1c2ccccc2CSc2ccccc21 (stereo unspecified) | inconclusive [activator, partial curve, poor fit] |  |
| CN1C(=O)C(Cc2ccsc2)C(=O)N(C)C1=O | inactive |  |
| CCNC(=O)NC(=O)C(C)OC(=O)c1c(C)nn(Cc2ccccc2Cl)c1Cl (stereo unspecified) | inconclusive [activator, partial curve, poor fit] |  |
| COP(=O)(OC)OC=C(Cl)Cl | active: 11.9 µM |  |
| Cc1cc(C)c(N)cc1C | inconclusive [activator, full curve, poor fit] |  |
| CC12CN3CCN(C1)CC(C)(C3)C2=NO | inconclusive [activator, single point] |  |
| COC(=O)C1=C(c2ccc3ccccc3c2)C[C@@H]2CC[C@H]1N2C(=O)NC1CCCCC1 | inconclusive [activator, single point] |  |
| COc1ccc(/C=C2/C(=O)N(c3ccccc3)N=C2C)cc1 | inconclusive [activator, single point] |  |
| C=CCN1C(=O)/C(=C/c2ccc3c(c2)CCCN3CCC)C(=O)NC1=S | inconclusive [activator, single point] |  |
| Cc1ccc(C(c2nnnn2Cc2ccccc2)N2CC=C(c3ccc(F)cc3)CC2)cc1 (stereo unspecified) | inactive |  |
| Cc1oc(-c2ccccc2)nc1CN1C(=O)C(C)N=C(c2ccccc2F)c2cc(Cl)ccc21 (stereo unspecified) | inconclusive [activator, single point] |  |
| Cc1ccccc1-n1c(CNc2ccccc2)nc2ccccc2c1=O | inconclusive [activator, partial curve, poor fit] |  |
| CC(=O)C1C(N2CC2)CC2C3CCC4=CC(=O)CCC4(C)C3CCC21C (stereo unspecified) | active: 16.4 µM |  |
| CCN(CC)c1ccc(/C=C2\C(=O)NC(=S)N(C)C2=O)o1 | inconclusive [activator, partial curve, poor fit] |  |
| Cc1ccc(C(C)C)c(OCC(=O)N2CCN(Cc3nc4cc([N+](=O)[O-])ccc4n3C)CC2)c1 | inactive |  |
| Cc1c(C(=O)N2CCC3(CC2)OCCO3)sc2ncnc(N(C)c3ccccc3)c12 | inconclusive [activator, partial curve, poor fit] |  |
| NC1(C(=O)O)CCCc2ccc(N(CCCl)CCCl)cc21 (stereo unspecified) | inconclusive [activator, partial curve, poor fit] |  |
| Cc1ccc(-n2cc(CNC(C)Cc3cnccn3)c(-c3cccc(C)c3)n2)cc1 (stereo unspecified) | inconclusive [activator, single point] |  |
| COc1c(C)cc(C(=O)C2CCCN(Cc3cccc(O)c3)C2)cc1C (stereo unspecified) | active: 6.51 µM |  |
